# Assay results reported in PubChem BioAssay AID602332 (National Center for Advancing Translational Sciences (NCATS), 2012).
# Several values for one entry are separate records, joined by “and”; a condition that tells them apart may be missing. Equal values may be shown once. The whole screen tested about 420,000 compounds, of which about 75 (0.02%) were called active. Calls come from the whole dose curve; as a rule, active = well fitted activation curve with a large enough effect; inconclusive = small, poorly fitted or top-dose-only effect; inactive = no such curve, though single readings can be large or run the other way. Only a part is listed here, and it is no random draw. Some compounds were tested as several samples or in several runs, with calls that do not always agree.
# Assay: qHTS for Inducers of the Endoplasmic Reticulum Stress Response (ERSR) in Human Glioma: qHTS; note: nearly all actives have a fitted effect of over 35% in size; for activation: % of control where 0% means no effect
# Conditions: U87-MG GRP78 promoter luciferase reporter, 16 h; activation: active compounds read high
# Procedure, shortened: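 Stably transfected U87-MG human glioma cells carrying a GRP78-based luminescent sensor were seeded at 1000 cells/well, pin-dosed with compounds and incubated 16 h. Luciferase reagent was then added, and end-point luminescence was read after 10 min at room temperature.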
# Potency is the fitted concentration of half-maximal effect.
SMILES,activation,Potency
Cc1ccc(C(=O)CSc2nnnn2C(C)C)c(C)c1,inactive: -17.2%,
CN(C)CCCN(C(=O)c1cc(-c2cccs2)nc2ccccc12)c1nc2ccc(F)cc2s1,inactive: -17.4%,
O=C(COc1ccc(CO)cc1Cl)Nc1ccc(F)cc1,inactive: -13.4%,
CCOc1ccc(C(=O)Nc2nnc(SCC(=O)NCC3CCCO3)s2)cc1 (stereo not drawn),inactive: -15.6%,
COc1ccc(Cl)cc1C(=O)Nc1nc2ccccc2[nH]1,inactive: -16.1%,
NS(=O)(=O)c1ccc(N2N=C(c3ccc(Br)cc3)CC2c2ccc(F)cc2)cc1 (stereo not drawn),inactive: -17.4%,
O=C(O)c1ccc2nc(-c3ccccc3)sc2c1,inactive: -15%,
COc1ccc(Br)cc1[C@H]1[C@H]2C=CC[C@@H](C)[C@@H]2C(=O)N1Cc1ccccc1,inactive: -1.9%,
CCOc1ccc2nc3sc(C(=O)N4CCOCC4)c(N)c3cc2c1,inactive: -11.3%,
CC(NC(=O)/C(C#N)=C/c1ccc(Cl)c([N+](=O)[O-])c1)c1ccccc1 (stereo not drawn),inactive: -14%,
C=CC[C@@H](CC(=O)OC(C)(C)C)C(=O)OC[C@@H]1CCCN1C(=O)[C@@H](CC=C)CC(=O)N[C@@H](CO)Cc1ccccc1,inactive: -1.44%,
C/C(N)=C(/C#N)C(=O)COC(=O)c1cc(C)n(-c2ccc(F)cc2)c1C,inactive: 4.04%,
Nc1ccc2c(c1)C(=O)C(=O)c1ccccc1-2,inactive: -15%,
Cc1ccc(NC(=O)C2CCCN2S(=O)(=O)c2cccc3cccnc23)c(C)c1 (stereo not drawn),inactive: -2.21%,
CCn1ccc(C(=O)Nc2ccc3c(c2)CCC3)n1,inactive: -12%,
Cc1nc([N+](=O)[O-])c(Br)n1CC(=O)c1ccc(Br)cc1,inactive: -16.2%,
O=C(NC1CCCCCC1)c1cccc(N2CCCC2=O)c1,inactive: -12.6%,
O=C(CSc1ccccn1)Nc1nonc1[N+](=O)[O-],inactive: -14.8%,
O=C(Nc1cc(N2CCOCC2)ncn1)c1ccccc1,,active: 35.5 µM
CCOc1ccc(N2C(=O)CC(Sc3nnnn3-c3ccccc3)C2=O)cc1 (stereo not drawn),inactive: -16.4%,
O=C(CN1C(=O)c2ccccc2S1(=O)=O)N1CCc2ccccc21,inactive: -14.7%,

SMILES,activation,Potency
O=S(=O)(Nc1cccc2cccnc12)c1ccccc1,inactive: 11.5%,
COc1cc(NC(=O)Cn2ncc(Cl)c(Cl)c2=O)c(C)cc1[N+](=O)[O-],inactive: -14.2%,
CN1CCN2c3ccccc3Cc3ccccc3C2C1 (stereo not drawn),,active: 35.5 µM
O=C(Nc1nc2cc3c(cc2s1)OCCO3)c1cccs1,inactive: -16.6%,
CC1(COc2ccc(CC3SC(=O)NC3=O)cc2)CCCCC1 (stereo not drawn),inactive: 3.79% and inactive: -0.164% and inactive: 5.82%,
O=C(Nc1cnc2ccccc2c1)N1CCCCC1,inactive: -13.1%,
CCCCOC(=O)c1cc2c(cn1)[nH]c1ccccc12,inactive: 3.2% and inactive: 3.53%,
CC1CCc2nc(NC(=O)c3ccco3)sc2C1 (stereo not drawn),inactive: -18.2%,
O=C(/C=C/Sc1ncn[nH]1)c1ccc(Cl)cc1,inactive: -15.7%,
COC(=O)COc1cc(Br)c(/C=C2/SC(=O)N(CC(=O)N3CCCC3)C2=O)cc1OC,inactive: -14.9%,
COc1cc2nc(N3CCCN(C)CC3)nc(NC3CCN(Cc4ccccc4)CC3)c2cc1OC,inactive: -9.4% and inactive: -11.7%,
CC(C)(C)OC(=O)N[C@@H](Cc1ccccc1)c1nnc(S(=O)(=O)Cc2cccc(F)c2)o1,inactive: 2.59%,
CCCCCCCCCCCCCCCCCCNC(=O)OCC(COP(=O)([O-])OCC[n+]1ccsc1)OC (stereo not drawn),inactive: -14.2%,
CSc1ccc(/C=C(\NC(=O)c2ccco2)C(=O)N2CCCCC2)cc1,inactive: -3.61%,
OC(COc1ccc2ccccc2c1)CN1CCOCC1 (stereo not drawn),inactive: 0.822%,
Cc1ccc(-c2onc3ccc(C(=O)O)cc23)cc1,inactive: -14.3%,
CC1=NOC(=O)/C1=C\c1ccc(-c2ccccc2Br)o1,inactive: -15.2%,
Cc1cc(C)cc(N2C(=O)C3CC=CCC3C2=O)c1 (stereo not drawn),inactive: -12.9%,
COC(=O)C(C)Oc1cc(OC(C)C(=O)OC)c2c(-c3ccccc3)cc(=O)oc2c1 (stereo not drawn),,active: 31.6 µM
Cc1ccc(-n2c(C)cc(C(=O)CSc3nnc4ccccn34)c2C)cc1,inactive: -12.3%,
CCOc1cc(CNCCO)cc(Br)c1OCc1ccccc1Cl,inactive: -18.6%,

SMILES,activation,Potency
CCN1CCCC1CNC(=O)c1cc(S(N)(=O)=O)ccc1OC (stereo not drawn),inactive: -3.41% [middle of 5 runs],
Cc1cc(C(C)(C)C)cc(C)c1Cn1c2[n+](c3ccc(C(F)(F)F)cc31)CCCCC2,inactive: -14.8%,
COc1ccc(S(=O)(=O)n2nc(OC(=O)c3ccc(C)cc3)cc2N)cc1,inactive: -14.6%,
O=C1C(Nc2ccccc2)=CC(=O)c2ncccc21,inactive: -12% and inactive: -11.6%,
Cc1ccc(N(NC(=O)C(O)(c2ccccc2)c2ccccc2)C(=O)CCl)cc1,inactive: -14.2%,
CC(C)(C)C(=O)Cn1ncc(Br)c(Br)c1=O,inactive: -14.5%,
O=C(NCc1ccc2c(c1)OCO2)c1nc(S(=O)(=O)Cc2ccccc2)ncc1Cl,inactive: -18.6%,
CCOC(=O)C1CCN(c2ncnc3c2cnn3-c2ccc(OC)cc2)CC1,inactive: -13.8%,
O=C(Nc1nc2ccccc2[nH]1)c1ccccc1OC(F)F,inactive: -12.5%,
Cc1ccc(S(=O)(=O)N2CCC(=O)N([C@H](COCc3cccc(C(F)(F)F)c3)Cc3ccccc3)CC2)cc1,inactive: -3.25%,
Cc1ccc(NCC(=O)N=Nc2c(O)[nH]c3ccc([N+](=O)[O-])cc23)cc1,,active: 39.8 µM
C#C[C@]1(O)CC[C@H]2[C@@H]3CCC4=Cc5oncc5C[C@]4(C)[C@H]3CC[C@@]21C,inactive: -3.69% and inactive: -2.31%,
O=C(Nc1ccc([N+](=O)[O-])cc1Cl)c1cc(Cl)ccc1O,inactive: -8.12% [middle of 5 runs],
Cc1noc(C)c1S(=O)(=O)N(C)C[C@@H]1OCc2cnnn2CCCC(=O)N([C@@H](C)CO)C[C@H]1C,inactive: -2.59%,
CC(C)(C)OC(=O)C[C@H]1C/C=C\C[C@@H](CC(=O)N[C@@H](CO)Cc2ccccc2)C(=O)NC[C@H](c2ccccc2)OC1=O,inactive: 4.03%,
CCCN1C=CC(=C2C(=O)c3ccccc3C2=O)C=C1,inactive: -14.7%,
CC(C)(C)OC(=O)NCCc1nnc(S(=O)(=O)Cc2ccc(Cl)cc2Cl)o1,inactive: -16.9%,
C[C@@H]1OC2C3=C(C(=O)[C@H]4O[C@@H]4[C@H]3O)[C@@H]1[C@H]1[C@H](C)OC=C3[C@H](O)[C@H]4O[C@H]4/C(=N\OCc4ccccc4)[C@@]321,inactive: 17.9%,
Cc1occc1C(=O)N/N=C/C=C\c1ccccc1[N+](=O)[O-],inactive: 5.59%,
COc1ccc(-c2cc3nc(CCl)[nH]c(=O)c3s2)cc1,inactive: -14.2%,
O=C1C(Cl)=C(NCCN2CCOCC2)C(=O)c2ncccc21,inactive: -12.1%,

SMILES,activation,Potency
CCN1CCC[C@H]1CNC(=O)c1cc(S(N)(=O)=O)ccc1OC,inactive: -2.86% [middle of 5 runs],
CCc1ccccc1N(CC)C(=O)C1CCN(c2ncnc3c2nc2n3CCCCC2)CC1,inactive: -3.34%,
COC1=C(OC)C(=O)c2ccccc2C1=O,inactive: -14%,
COc1ccc(/C=C\C(=O)Nc2ccccc2C(=O)O)cc1OC,inactive: -11.5%,
O=C(NN1C(=O)/C(=C/c2ccc(O)c([N+](=O)[O-])c2)SC1=S)c1ccccc1Cl,inactive: -3.19%,
Nc1cccc(Nc2nc(OC(C(F)(F)F)C(F)(F)F)nc(OC(C(F)(F)F)C(F)(F)F)n2)c1,inactive: -18.9%,
Cc1cc(CC(C)CC(C)(C)C)n(O)c(=O)c1 (stereo not drawn),inactive: -5.4%,
CCOC(=O)COc1ccc(Br)cc1/C=C\c1[nH]c(=O)[nH]c(=O)c1[N+](=O)[O-],inactive: -13.6%,
CC[C@H](C)[C@H]1O[C@]2(CC[C@@H]1C)C[C@@H]1C[C@@H](CC=C(C)[C@@H](O[C@H]3C[C@H](OC)[C@@H](O[C@H]4C[C@H](OC)[C@@H](O)[C@H](C)O4)[C@H](C)O3)[C@@H](C)C=CC=C3CO[C@@H]4[C@H](O)C(C)=C[C@@H](C(=O)O1)[C@]34O)O2,inactive: -0.821%,
CCOc1cc(/C=N/O)cc(Br)c1OCc1ccc(Cl)cc1,inactive: -18.7%,
Cc1ccc(-c2csc3ncnc(Sc4nnc(CN5CCCCCC5=O)o4)c23)cc1,inactive: -15.5%,
COc1ccc(-c2coc3cc(O)cc(O)c3c2=O)cc1,inactive: 5.49% and inactive: -1.29%,
Cc1cc(NC(=O)CCS(=O)(=O)c2nc(-c3ccccc3)cc(C(F)(F)F)n2)no1,inactive: -15.1%,
Cc1ccc(C2CC(c3cccs3)=NN2C(=O)CCl)cc1 (stereo not drawn),inactive: -15.7%,
Cc1nonc1C(=O)N/N=C/c1ccc(O)c(O)c1,,active: 35.5 µM
C#C[C@]1(O)CC[C@H]2[C@H]3CCC4=Cc5oncc5C[C@]4(C)[C@@H]3CC[C@]21C,inactive: -6.35%,
c1ccc(-c2noc(-c3ccco3)n2)nc1,inactive: -13.6%,
Cc1ccc(F)c([C@H]2[C@H]3C=CC[C@@H](C)[C@@H]3C(=O)N2Cc2ccccc2)c1,inactive: -1.57%,
COc1ccccc1NC(=O)Nn1cnnc1,inactive: -18.7%,
CCOc1ccc(NC(=O)CCC(=O)N2CCSc3ccccc32)cc1,inactive: 0.197%,
